Substitutions are numbered along the chain they refer to; changes in the protein carry UniProt numbers. This is one part of the list.
Legend:
RBFOX1 RRM [1] = biological target: T1, RBFOX1 RRM (Homo sapiens, UniProt Q9NWB1 109-208); test: EMSA; HiTS-Eq, 1 nM pool, 10 min; buffer printed only for the single-RNA assays: 10 mM Tris pH 7.5, 150 mM NaCl, 3.4 mM EDTA, 0.001% NP-40, 30 C; settings: tags: His6 N-terminal (pET28a); label: 5' 32P
T1 sequence: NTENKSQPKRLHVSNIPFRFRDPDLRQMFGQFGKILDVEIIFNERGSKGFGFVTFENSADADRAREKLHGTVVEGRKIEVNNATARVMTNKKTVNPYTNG
Summary of the method: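 A pool of RNA with 7 randomized nucleotides, 5′-radiolabelled and with DNA-annealed flanks, was equilibrated at 1 nM for 10 min in 50 µL with purified RbFox RRM, wild type or mutant, across increasing protein concentrations. Free RNA was separated by 8% native PAGE, excised, reverse-transcribed, barcoded by PCR and sequenced. Relative association constants were obtained from read-count changes of each RNA species versus the control reaction and normalised to the cognate motif.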

RBFOX1 RRM [2] = biological target: T1, RBFOX1 RRM; test: competition; 10 mM Tris pH 7.5, 150 mM NaCl, 3.4 mM EDTA, 0.001% NP-40, 30 C; settings: tags: His6 N-terminal (pET28a)

B1: UAGUAGG (DNA:RNA)
RNA: GGGAGACCGGAAUUCAGAUUGUCCUAGUAGGUUAAAUCCCGUCGUAGCCACCA
DNA 1: CAATCTGAATTCCGGTCTCCC
DNA 2: TGGTGGCTACGACGGGATT
B1 was tested, and the binding signal (RBFOX1 RRM [1]) was 0.00933 KA relative to UGCAUGU.

B2: CCGUCAA (DNA:RNA)
RNA: B1 RNA with U25C, A26C, A29C, G30A, G31A
DNA 1: CAATCTGAATTCCGGTCTCCC
DNA 2: TGGTGGCTACGACGGGATT
B2 was tested, and the binding signal (RBFOX1 RRM [1]) was 0.00242 KA relative to UGCAUGU.

B3: AAUGUUA (DNA:RNA)
RNA: B1 RNA with U25A, G27U, U28G, A29U, G30U, G31A
DNA 1: CAATCTGAATTCCGGTCTCCC
DNA 2: TGGTGGCTACGACGGGATT
B3 was tested, and the binding signal (RBFOX1 RRM [1]) was 0.0054 KA relative to UGCAUGU.

UGCAAGU (ssRNA) gave a binding signal (RBFOX1 RRM [2]) of 335 nM.

B4: UUAAUAA (DNA:RNA)
RNA: B1 RNA with A26U, G27A, U28A, A29U, G30A, G31A
DNA 1: CAATCTGAATTCCGGTCTCCC
DNA 2: TGGTGGCTACGACGGGATT
In the case of B4, the binding signal (RBFOX1 RRM [1]) is reported as 0.0029 KA relative to UGCAUGU.

B5: CACAGCU (DNA:RNA)
RNA: B1 RNA with U25C, G27C, U28A, A29G, G30C, G31U
DNA 1: CAATCTGAATTCCGGTCTCCC
DNA 2: TGGTGGCTACGACGGGATT
B5 was tested, and the binding signal (RBFOX1 RRM [1]) was 0.00163 KA relative to UGCAUGU.

B6: AUUGCUU (DNA:RNA)
RNA: GGGAGACCGGAAUUCAGAUUGUCCAUUGCUUUUAAAUCCCGUCGUAGCCACCA
DNA 1: CAATCTGAATTCCGGTCTCCC
DNA 2: TGGTGGCTACGACGGGATT
In the case of B6, the binding signal (RBFOX1 RRM [1]) is reported as 0.0107 KA relative to UGCAUGU.

B7: UCGUGCA (DNA:RNA)
RNA: B1 RNA with A26C, A29G, G30C, G31A
DNA 1: CAATCTGAATTCCGGTCTCCC
DNA 2: TGGTGGCTACGACGGGATT
B7 was tested, and the binding signal (RBFOX1 RRM [1]) was 0.0239 KA relative to UGCAUGU.

B8: AUCCUAG (DNA:RNA)
RNA: B6 RNA with U27C, G28C, C29U, U30A, U31G
DNA 1: CAATCTGAATTCCGGTCTCCC
DNA 2: TGGTGGCTACGACGGGATT
In the case of B8, the binding signal (RBFOX1 RRM [1]) is reported as 0.00318 KA relative to UGCAUGU.

B9: GAGCUUC (DNA:RNA)
RNA: B1 RNA with U25G, U28C, A29U, G30U, G31C
DNA 1: CAATCTGAATTCCGGTCTCCC
DNA 2: TGGTGGCTACGACGGGATT
For B9, the binding signal (RBFOX1 RRM [1]) was 0.0194 KA relative to UGCAUGU.

B10: UGCCACG (DNA:RNA)
RNA: B1 RNA with A26G, G27C, U28C, G30C
DNA 1: CAATCTGAATTCCGGTCTCCC
DNA 2: TGGTGGCTACGACGGGATT
B10 was tested, and the binding signal (RBFOX1 RRM [1]) was 0.0198 KA relative to UGCAUGU.

B11: CCGUGAC (DNA:RNA)
RNA: B1 RNA with U25C, A26C, A29G, G30A, G31C
DNA 1: CAATCTGAATTCCGGTCTCCC
DNA 2: TGGTGGCTACGACGGGATT
For B11, the binding signal (RBFOX1 RRM [1]) was 0.00491 KA relative to UGCAUGU.

B12: GGUAGGC (DNA:RNA)
RNA: B6 RNA with A25G, U26G, G28A, C29G, U30G, U31C
DNA 1: CAATCTGAATTCCGGTCTCCC
DNA 2: TGGTGGCTACGACGGGATT
For B12, the binding signal (RBFOX1 RRM [1]) was 0.00776 KA relative to UGCAUGU.

B13: GCGGCAG (DNA:RNA)
RNA: B6 RNA with A25G, U26C, U27G, U30A, U31G
DNA 1: CAATCTGAATTCCGGTCTCCC
DNA 2: TGGTGGCTACGACGGGATT
In the case of B13, the binding signal (RBFOX1 RRM [1]) is reported as 0.0169 KA relative to UGCAUGU.

B14: AUCCUAA (DNA:RNA)
RNA: B6 RNA with U27C, G28C, C29U, U30A, U31A
DNA 1: CAATCTGAATTCCGGTCTCCC
DNA 2: TGGTGGCTACGACGGGATT
For B14, the binding signal (RBFOX1 RRM [1]) was 0.00156 KA relative to UGCAUGU.

B15: ACGUGGG (DNA:RNA)
RNA: B1 RNA with U25A, A26C, A29G
DNA 1: CAATCTGAATTCCGGTCTCCC
DNA 2: TGGTGGCTACGACGGGATT
In the case of B15, the binding signal (RBFOX1 RRM [1]) is reported as 0.0119 KA relative to UGCAUGU.

B16: AGACGGA (DNA:RNA)
RNA: B6 RNA with U26G, U27A, G28C, C29G, U30G, U31A
DNA 1: CAATCTGAATTCCGGTCTCCC
DNA 2: TGGTGGCTACGACGGGATT
In the case of B16, the binding signal (RBFOX1 RRM [1]) is reported as 0.00506 KA relative to UGCAUGU.

B17: CAGGGGG (DNA:RNA)
RNA: B1 RNA with U25C, U28G, A29G
DNA 1: CAATCTGAATTCCGGTCTCCC
DNA 2: TGGTGGCTACGACGGGATT
For B17, the binding signal (RBFOX1 RRM [1]) was 0.01 KA relative to UGCAUGU.

B18: CCACUGA (DNA:RNA)
RNA: B1 RNA with U25C, A26C, G27A, U28C, A29U, G31A
DNA 1: CAATCTGAATTCCGGTCTCCC
DNA 2: TGGTGGCTACGACGGGATT
B18 was tested, and the binding signal (RBFOX1 RRM [1]) was 0.0104 KA relative to UGCAUGU.

B19: CGGGUAA (DNA:RNA)
RNA: B6 RNA with A25C, U26G, U27G, C29U, U30A, U31A
DNA 1: CAATCTGAATTCCGGTCTCCC
DNA 2: TGGTGGCTACGACGGGATT
For B19, the binding signal (RBFOX1 RRM [1]) was 0.0192 KA relative to UGCAUGU.

B20: CGUGUUC (DNA:RNA)
RNA: B6 RNA with A25C, U26G, C29U, U31C
DNA 1: CAATCTGAATTCCGGTCTCCC
DNA 2: TGGTGGCTACGACGGGATT
For B20, the binding signal (RBFOX1 RRM [1]) was 0.0132 KA relative to UGCAUGU.

B21: UUCUCAA (DNA:RNA)
RNA: B6 RNA with A25U, U27C, G28U, U30A, U31A
DNA 1: CAATCTGAATTCCGGTCTCCC
DNA 2: TGGTGGCTACGACGGGATT
In the case of B21, the binding signal (RBFOX1 RRM [1]) is reported as 0.00416 KA relative to UGCAUGU.

B22: GAACCGG (DNA:RNA)
RNA: B1 RNA with U25G, G27A, U28C, A29C
DNA 1: CAATCTGAATTCCGGTCTCCC
DNA 2: TGGTGGCTACGACGGGATT
For B22, the binding signal (RBFOX1 RRM [1]) was 0.0117 KA relative to UGCAUGU.

B23: AGAAUCG (DNA:RNA)
RNA: B6 RNA with U26G, U27A, G28A, C29U, U30C, U31G
DNA 1: CAATCTGAATTCCGGTCTCCC
DNA 2: TGGTGGCTACGACGGGATT
B23 was tested, and the binding signal (RBFOX1 RRM [1]) was 0.00981 KA relative to UGCAUGU.

B24: UUCCGCA (DNA:RNA)
RNA: B6 RNA with A25U, U27C, G28C, C29G, U30C, U31A
DNA 1: CAATCTGAATTCCGGTCTCCC
DNA 2: TGGTGGCTACGACGGGATT
In the case of B24, the binding signal (RBFOX1 RRM [1]) is reported as 0.00914 KA relative to UGCAUGU.

B25: GGGACUC (DNA:RNA)
RNA: B6 RNA with A25G, U26G, U27G, G28A, U31C
DNA 1: CAATCTGAATTCCGGTCTCCC
DNA 2: TGGTGGCTACGACGGGATT
B25 was tested, and the binding signal (RBFOX1 RRM [1]) was 0.0264 KA relative to UGCAUGU.

B26: GACCUCG (DNA:RNA)
RNA: B1 RNA with U25G, G27C, U28C, A29U, G30C
DNA 1: CAATCTGAATTCCGGTCTCCC
DNA 2: TGGTGGCTACGACGGGATT
B26 was tested, and the binding signal (RBFOX1 RRM [1]) was 0.00932 KA relative to UGCAUGU.

B27: CGGUACG (DNA:RNA)
RNA: B1 RNA with U25C, A26G, G30C
DNA 1: CAATCTGAATTCCGGTCTCCC
DNA 2: TGGTGGCTACGACGGGATT
B27 was tested, and the binding signal (RBFOX1 RRM [1]) was 0.0111 KA relative to UGCAUGU.

B28: GGUCCAU (DNA:RNA)
RNA: B6 RNA with A25G, U26G, G28C, U30A
DNA 1: CAATCTGAATTCCGGTCTCCC
DNA 2: TGGTGGCTACGACGGGATT
In the case of B28, the binding signal (RBFOX1 RRM [1]) is reported as 0.00705 KA relative to UGCAUGU.

B29: GUCGCGU (DNA:RNA)
RNA: B6 RNA with A25G, U27C, U30G
DNA 1: CAATCTGAATTCCGGTCTCCC
DNA 2: TGGTGGCTACGACGGGATT
B29 was tested, and the binding signal (RBFOX1 RRM [1]) was 0.0218 KA relative to UGCAUGU.

B30: UACAGAC (DNA:RNA)
RNA: B1 RNA with G27C, U28A, A29G, G30A, G31C
DNA 1: CAATCTGAATTCCGGTCTCCC
DNA 2: TGGTGGCTACGACGGGATT
For B30, the binding signal (RBFOX1 RRM [1]) was 0.00317 KA relative to UGCAUGU.

Source: article PMC9911399, “Two distinct binding modes provide the RNA-binding protein RbFox with extraordinary sequence specificity”
